# Results taken from the supplement of paper PMC12217912.
# This is one part of the list. Sequences were assembled here from the parent chain. Inactive controls read about 0.05.
# B1: TEV protease; numbered along this chain (parent)
# chain: MGESLFKGPRDYNPISSSICHLTNESDGHTTSLYGIGFGPFIITNKHLFRRNNGTLVVQSLHGVFKVKDTTTLQQHLVDGRDMIIIRMPKDFPPFPQKLKFREPQREERICLVTTNFQTKSMSSMVSDTSCTFPSGDGIFWKHWIQTKDGQCGSPLVSTRDGFIVGIHSASNFTNTNNYFTSVPKNFMELLTNQEAQQWVSGWRLNADSVLWGGHKVFMVKPEEPFQPVKEATQL
# Variants of: B1
# Assay: raw area under fraction-flipped curve 0-4 h after induction (AUC4h, not background-subtracted), DNA-recorder readout of cleavage of the substrate (dimensionless); higher = more cleavage of the substrate by the protease variant
# Details: temperature: 34 °C; time window: 0-4 h after rhamnose induction
# Protocol: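 In vivo DNA recorder in E. coli TOP10(DE3) ΔrhaA at 34 °C. Each TEVp single-site mutant (parent TEVp 0) is paired with a single-site variant of the 7-mer TEVs (canonical ENLYFQ|S). The substrate sits between flexible linkers in a Bxb1-sfGFP-TEVs-SsrA fusion, so cleavage stabilises Bxb1 and speeds flipping of a recombination array, read by NGS. The value is the raw area under the fraction-flipped curve over 0-4 h after rhamnose induction (AUC4h), with ≥20 reads per time point. It is not background-subtracted; inactive controls average about 0.047.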
# 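Further: Bxb1 expression induced with 0.2% (w/v) L-rhamnose at OD600 near 0.5, cultures sampled hourly, flipped fraction per protease–substrate barcode pair counted by paired-end Illumina sequencing.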
variant,measurement,value
R106E,area with substrate EALYFQS,0.0483
same,area with substrate ECLYFQS,0.0989
same,area with substrate EDLYFQS,0.142
same,area with substrate EILYFQS,0.11
same,area with substrate EKLYFQS,0.092
same,area with substrate ELLYFQS,0.089
same,area with substrate EMLYFQS,0.119
same,area with substrate EPLYFQS,0.109
same,area with substrate EQLYFQS,0.132
same,area with substrate ERLYFQS,0.098
same,area with substrate ESLYFQS,0.115
same,area with substrate EVLYFQS,0.0978
same,area with substrate EYLYFQS,0.177
R106S,area with substrate EALYFQS,0.148
same,area with substrate ECLYFQS,0.0949
same,area with substrate EILYFQS,0.098
same,area with substrate EKLYFQS,0.111
same,area with substrate ELLYFQS,0.115
same,area with substrate EQLYFQS,0.112
same,area with substrate ERLYFQS,0.0708
same,area with substrate ESLYFQS,0.0984
same,area with substrate EVLYFQS,0.11
same,area with substrate EWLYFQS,0.0856
same,area with substrate EYLYFQS,0.0953
I85Y,area with substrate EALYFQS,0.0635
same,area with substrate EDLYFQS,0.0636
same,area with substrate EFLYFQS,0.0507
same,area with substrate EHLYFQS,0.0483
same,area with substrate EILYFQS,0.0579
same,area with substrate EKLYFQS,0.0622
same,area with substrate EMLYFQS,0.0772
same,area with substrate EPLYFQS,0.0588
same,area with substrate ERLYFQS,0.0563
same,area with substrate ESLYFQS,0.0669
same,area with substrate EVLYFQS,0.0605
I85T,area with substrate EALYFQS,0.0653
same,area with substrate EELYFQS,0.0632
same,area with substrate EGLYFQS,0.0587
same,area with substrate EILYFQS,0.0577
same,area with substrate EMLYFQS,0.077
same,area with substrate EPLYFQS,0.0679
same,area with substrate EQLYFQS,0.0578
same,area with substrate ERLYFQS,0.0916
same,area with substrate ESLYFQS,0.069
same,area with substrate EVLYFQS,0.0571
same,area with substrate EYLYFQS,0.0459
I110N,area with substrate EALYFQS,0.0614
same,area with substrate ECLYFQS,0.0615
same,area with substrate EELYFQS,0.0386
same,area with substrate EGLYFQS,0.0526
same,area with substrate EHLYFQS,0.0547
same,area with substrate EILYFQS,0.047
same,area with substrate EKLYFQS,0.051
same,area with substrate ELLYFQS,0.0844
same,area with substrate EPLYFQS,0.0573
same,area with substrate EQLYFQS,0.0565
same,area with substrate ETLYFQS,0.0536
same,area with substrate EVLYFQS,0.0477
same,area with substrate EYLYFQS,0.0431
I110K,area with substrate EALYFQS,0.0573
same,area with substrate ECLYFQS,0.0481
same,area with substrate EELYFQS,0.0478
same,area with substrate EFLYFQS,0.0234
same,area with substrate EGLYFQS,0.0633
same,area with substrate EHLYFQS,0.0559
same,area with substrate EKLYFQS,0.0601
same,area with substrate ELLYFQS,0.046
same,area with substrate EMLYFQS,0.0499
same,area with substrate EPLYFQS,0.0567
same,area with substrate EQLYFQS,0.0442
same,area with substrate ERLYFQS,0.12
same,area with substrate ESLYFQS,0.0543
same,area with substrate EWLYFQS,0.0559
R109L,area with substrate EALYFQS,0.122
same,area with substrate EDLYFQS,0.117
same,area with substrate EELYFQS,0.117
same,area with substrate EILYFQS,0.112
same,area with substrate EKLYFQS,0.0985
same,area with substrate EMLYFQS,0.113
same,area with substrate EPLYFQS,0.121
same,area with substrate EQLYFQS,0.124
same,area with substrate ERLYFQS,0.106
same,area with substrate ETLYFQS,0.093
same,area with substrate EVLYFQS,0.124
same,area with substrate EYLYFQS,0.0933
R87H,area with substrate EALYFQS,0.114
same,area with substrate ECLYFQS,0.0937
same,area with substrate EKLYFQS,0.113
same,area with substrate EPLYFQS,0.109
H76L,area with substrate EALYFQS,0.18
same,area with substrate ECLYFQS,0.0734
same,area with substrate EDLYFQS,0.14
same,area with substrate EGLYFQS,0.0805
same,area with substrate EKLYFQS,0.114
same,area with substrate EQLYFQS,0.124
same,area with substrate ESLYFQS,0.119
same,area with substrate ETLYFQS,0.143
same,area with substrate EVLYFQS,0.0787
H76D,area with substrate EALYFQS,0.0591
same,area with substrate EELYFQS,0.0617
same,area with substrate EILYFQS,0.0439
same,area with substrate EKLYFQS,0.0623
same,area with substrate ELLYFQS,0.0565
same,area with substrate EMLYFQS,0.0598
same,area with substrate EPLYFQS,0.078
same,area with substrate EQLYFQS,0.0775
same,area with substrate ERLYFQS,0.0761
same,area with substrate ESLYFQS,0.067
same,area with substrate EVLYFQS,0.061
same,area with substrate EWLYFQS,0.0539
same,area with substrate EYLYFQS,0.0851
H76W,area with substrate EALYFQS,0.104
same,area with substrate EDLYFQS,0.0946
same,area with substrate EELYFQS,0.0646
same,area with substrate EFLYFQS,0.0928
same,area with substrate EGLYFQS,0.0728
same,area with substrate EHLYFQS,0.0814
same,area with substrate EILYFQS,0.0731
same,area with substrate EKLYFQS,0.104
same,area with substrate EMLYFQS,0.0815
same,area with substrate EPLYFQS,0.12
same,area with substrate EQLYFQS,0.0759
same,area with substrate ERLYFQS,0.0756
same,area with substrate ESLYFQS,0.0873
H76M,area with substrate EALYFQS,0.108
same,area with substrate EDLYFQS,0.0869
same,area with substrate EELYFQS,0.121
same,area with substrate EGLYFQS,0.126
same,area with substrate EILYFQS,0.102
same,area with substrate ELLYFQS,0.118
same,area with substrate EMLYFQS,0.0998
same,area with substrate EQLYFQS,0.156
same,area with substrate ERLYFQS,0.1
same,area with substrate ESLYFQS,0.116
F101V,area with substrate EALYFQS,0.096
same,area with substrate ECLYFQS,0.0859
same,area with substrate EDLYFQS,0.0837
same,area with substrate EGLYFQS,0.0714
same,area with substrate EHLYFQS,0.0758
same,area with substrate EKLYFQS,0.0523
same,area with substrate EQLYFQS,0.0732
same,area with substrate ETLYFQS,0.0807
Q97A,area with substrate EALYFQS,0.138
same,area with substrate ECLYFQS,0.115
same,area with substrate EELYFQS,0.122
same,area with substrate EILYFQS,0.0809
same,area with substrate EMLYFQS,0.103
same,area with substrate ERLYFQS,0.112
same,area with substrate ESLYFQS,0.108
same,area with substrate EVLYFQS,0.107
same,area with substrate EYLYFQS,0.105
Q97H,area with substrate EALYFQS,0.162
same,area with substrate ECLYFQS,0.0921
same,area with substrate EKLYFQS,0.0868
same,area with substrate ELLYFQS,0.0947
same,area with substrate EMLYFQS,0.101
same,area with substrate ERLYFQS,0.086
same,area with substrate ESLYFQS,0.0752
same,area with substrate ETLYFQS,0.106
same,area with substrate EYLYFQS,0.123
E103T,area with substrate EALYFQS,0.15
same,area with substrate ECLYFQS,0.0982
same,area with substrate EELYFQS,0.142
same,area with substrate EGLYFQS,0.0916
same,area with substrate EILYFQS,0.0858
same,area with substrate EKLYFQS,0.118
same,area with substrate ERLYFQS,0.0801
same,area with substrate ETLYFQS,0.0933
same,area with substrate EVLYFQS,0.0911
